Legend:
[1] = test system: mDC1 cells (mouse antigen-presenting dendritic cell line 1); assay: Uptake of TAMRA-labeled NF-pCj1 into mDC1 cells; settings: TAMRA MFI, 1 μM, 3.5 h at 37°C
[2] = test system: HLA-DP5 expressed on mDC1 cells; assay: Cell-surface peptide-display assay on HLA-DP5-expressing mDC1 cells; settings: same levels of peptide uptake and HLA-DP5 expression; vs WT
[3] = test system: TCR(SU3–3)-TG40 and TCR(NM-4)-TG40 cells; assay: IL-2 production assay with HLA-DP5-expressing mDC1 cells; settings: antigen doses > 3 µg ml^−1 (P < 0.05)
[4] = test system: HLA-DP5 extracellular region (DPA1*02:02 and DPB1*05:01); settings: crystal structure at 2.4 Å; ref [13]; cited from earlier work
Source text: For Chamaecyparis obtusa (Cha o, Japanese cypress) polle ...

[5] = target: HLA-DP5 (DPA1*02:02 and DPB1*05:01) (Homo sapiens, UniProt P04440+P20036, A42M/A65V/A84E/F191V/F64L/G113D/G114E/K142R/L158P/M116V/M62Q/P115A/Q81R/R125K/T114A/T199I/T259P/V234M); assay: Peptide competition assay with biotin-conjugated HA1 peptide on HLA-DP5-transfected HEK293 cells; format: binding

DEEMKVTVAFNQF-GPN-EG2-TAMRA
effect of NF mutation S(P–2)E/K(P–3)E on uptake (in words) [1]: not affected | decrease of amount displayed on the mDC1 surface by the S(P–2)E/K(P–3)E mutations [2]: about 2 fold

KVTVAFNQF [pCj1]
difference of IL-2 production from NF[WT]-pCj1 (in words) [3]: significant differences in the IL-2 production | binding in the peptide-binding groove (in words) [4]: bound within the PBG

NF[S(P–2)E/K(P–3)E]-pCj1: double mutation of Ser(–2) and Lys(–3) to Glu in a 13-residue Cry j 1 peptide (NF-pCj1) (DEEMKVTVAFNQF)
difference of IL-2 production from NF[WT]-pCj1 (in words) [3]: significant differences in the IL-2 production | decrease of affinity for HLA-DP5 by the double mutation ([5]; S(P–2)E/K(P–3)E vs WT NF-pCj1, competitive binding assay): about 2 fold

WT NF-pCj1: C-terminally-flanked version of NF-pCj1 (16-residue) (DKSMKVTVAFNQFGPN)
competition with the HA1 peptide (in words) ([5]; HLA-DP5-expressing HEK293 cells, 24 h, 16-residue peptides): competed with the HA1 peptide well

Reference: publication PMC10478803, “Contributions of the N-terminal flanking residues of an antigenic peptide from the Japanese cedar pollen allergen Cry j 1 to the T-cell activation by HLA-DP5” (International Immunology, 2023)
